Data from PubChem BioAssay AID463173 (ICCB-Longwood Screening Facility, Harvard Medical School, 2010).
About 1,700 (3.3%) of roughly 52,000 compounds were called active. Rule as the data show it: active = survival mostly below about 52% (no sharp cut-off); inactive = mostly above about 56%. The list shows a part of the results.

tested on: Wild type; test: S. aureus survival, RN4220 and DeltatarO strains – OD600, teichoic acid synthesis inhibitors, primary screen (AID 463173); conditions: S. aureus RN4220 wild type/DeltatarO growth, OD600, 18 h, stronger effect = lower value, screened at 18.75 µg/mL (by protocol)

**Q.** With `CN(C(=O)CSc1nc2ccc(NC(=O)c3cccs3)cc2s1)c1ccccc1` as the compound, how does the survival read?
**A.** inactive: 77%

**Q.** How did the survival turn out when `COC(=O)c1cccc(CN2C(=O)SC(Nc3ccccc3C)C2=O)c1` (stereo not drawn) was run?
**A.** inactive: 115%

**Q.** `Cc1ccc(CN2C(=O)CN(C3CCCCCC3)C(=O)C2c2ccc(F)cc2)cc1` (stereo not drawn) was tested. Which survival did it give?
**A.** active: 1%

**Q.** How did the survival turn out when `O=C(c1ccc(-c2cccc(C(F)(F)F)c2)o1)N1CCOCC1` was run?
**A.** inactive: 107%

**Q.** With `CCc1ccc(CNC(=O)C2CCN(C(=O)c3ccc(-n4c(C)cc5ccccc54)s3)CC2)cc1` as the compound, how does the survival read?
**A.** inactive: 81%

**Q.** Which survival does the source give for `COc1ccc(-n2c(=O)c3c4c(sc3n(CC(=O)C(C)(C)C)c2=O)CCCC4)c(OC)c1` here?
**A.** inactive: 65%

**Q.** For `Cc1ccc(OCc2cc(=O)n3c(-c4ccccc4)csc3n2)cc1`, which survival is on record?
**A.** inactive: 94%

**Q.** Which survival does the source give for `COc1ccc(C(=O)Nc2nc(-c3nnn(-c4cc(OC)ccc4OC)c3C)ns2)cc1` here?
**A.** inactive: 120%

**Q.** How did the survival turn out when `CCc1ccc(CNC(=O)c2cc3cc4ccc(OC)cc4nc3o2)cc1` was run?
**A.** inactive: 92%

**Q.** Which survival does the source give for `Cc1cccc(N2C(=O)CN(C(C)C)C(=O)C2c2ccc(F)cc2)c1C` (stereo not drawn) here?
**A.** inactive: 105%

**Q.** With `O=C(Cn1nnc(-c2cccc(C(F)(F)F)c2)n1)NCc1ccc(F)cc1` as the compound, how does the survival read?
**A.** inactive: 93%

**Q.** Which survival does the source give for `Cc1ccc(NC(=O)C(=O)NCC(c2ccc3c(c2)OCO3)N2CCN(C)CC2)cc1C` (stereo not drawn) here?
**A.** inactive: 54%

**Q.** `Cc1c(C(=O)Oc2ccc(Br)cc2)sc2ncn(Cc3ccccc3F)c(=O)c12` was tested. Which survival did it give?
**A.** inactive: 55%

**Q.** With `COc1ccc(-c2cc(C(=O)NCc3ccc(C)cc3)c3cc(C(C)C)ccc3n2)cc1` as the compound, how does the survival read?
**A.** inactive: 81%

**Q.** With `COc1cc(N)ncn1` as the compound, how does the survival read?
**A.** inactive: 101%

**Q.** With `CCN(CC)S(=O)(=O)c1ccc2c(c1)c(=O)c(C(=O)N1CCN(c3ccccc3OC)CC1)cn2C` as the compound, how does the survival read?
**A.** inactive: 78%

**Q.** Which survival does the source give for `COc1cc(NC(=O)Nc2c[nH]c(=O)[nH]c2=O)cc(OC)c1OC` here?
**A.** inactive: 69%

**Q.** With `CC(C)CCNC(=O)Cn1cc(S(=O)(=O)Cc2ccc(F)cc2)c2ccccc21` as the compound, how does the survival read?
**A.** inactive: 91%

**Q.** How did the survival turn out when `COc1cccc2cc(-c3nc4ccc(C)cc4[nH]3)c(=O)oc12` was run?
**A.** inactive: 73%

**Q.** Which survival does the source give for `O=C(NCCCN1CCN(c2ccccc2F)CC1)c1sc2ncccc2c1-n1cccc1` here?
**A.** inactive: 81%

**Q.** For `Cc1cc(OCC#N)nc(N)n1`, which survival is on record?
**A.** inactive: 120%

**Q.** Which survival does the source give for `O=C1CCSC2(C(=O)N(Cc3ccccc3)c3ccccc32)N1c1ccccc1` (stereo not drawn) here?
**A.** inactive: 126%

**Q.** For `O=C(C1CCCCC1)N1CCN(C(=O)C2CCCCC2)CC1`, which survival is on record?
**A.** inactive: 105%

**Q.** For `CCCCOc1ccc(S(=O)(=O)n2nc(C)c(S(=O)(=O)N3CCCCCC3)c2C)cc1`, which survival is on record?
**A.** inactive: 77%

**Q.** Which survival does the source give for `CCCC(=O)OC1=C(C(C)=O)N(Cc2ccccc2)S(=O)(=O)c2ccccc21` here?
**A.** inactive: 81%

**Q.** With `Cc1cc(S(=O)(=O)NCCc2csc(-c3cccc(F)c3)n2)ccc1F` as the compound, how does the survival read?
**A.** inactive: 80%

**Q.** For `CC(=O)N1c2ccc(S(=O)(=O)NCC3CCC(C(=O)Nc4cccc(C)c4)CC3)cc2CC1C` (stereo not drawn), which survival is on record?
**A.** inactive: 91%

**Q.** How did the survival turn out when `Cn1c(O)c(N=NC(=O)c2ccccc2)c2ccccc21` was run?
**A.** inactive: 105%

**Q.** With `O=C(CCS(=O)(=O)c1cc2c(cc1Cl)NC(=O)CO2)NCc1ccccc1` as the compound, how does the survival read?
**A.** inactive: 117%

**Q.** Which survival does the source give for `Cc1nc2ccc(NC(=O)C3CCCCC3)cc2c(=O)n1Cc1ccccc1` here?
**A.** inactive: 131%

**Q.** How did the survival turn out when `CCc1ccc2nc(N3CCC(C(=O)NCCC(C)C)CC3)sc2c1` was run?
**A.** inactive: 146%

**Q.** With `CCCCNC(=O)c1cnc2c(-c3ccc(OCC)c(OCC)c3)c(C)nn2c1-c1ccccc1` as the compound, how does the survival read?
**A.** inactive: 80%

**Q.** `CC1CN(C(=O)CSCc2ccccc2)CC(C)O1` (stereo not drawn) was tested. Which survival did it give?
**A.** inactive: 113%

**Q.** How did the survival turn out when `CCN(Cc1ccccc1)S(=O)(=O)c1ccc(N2CCCCS2(=O)=O)cc1` was run?
**A.** inactive: 66%

**Q.** For `CCc1cccc(C)c1NC(=O)c1cc2ccccc2o1`, which survival is on record?
**A.** inactive: 121%

**Q.** For `Cn1cc(S(=O)(=O)c2ccccc2)c(=O)c2cc(F)c(N3CCCC3)cc21`, which survival is on record?
**A.** inactive: 124%

**Q.** For `O=C(NCc1ccccc1)c1ccc(CSc2nc3cccnc3n2Cc2ccccc2)cc1`, which survival is on record?
**A.** inactive: 99%

**Q.** How did the survival turn out when `O=C(c1ccccc1)C(Nc1ccccn1)c1ccccc1` (stereo not drawn) was run?
**A.** inactive: 117%

**Q.** For `COc1ccc(CCNC(=O)c2cc3c(=O)n4ccccc4nc3n2C)cc1`, which survival is on record?
**A.** inactive: 85%

**Q.** How did the survival turn out when `COc1ccc(NC(=O)Cn2cc(S(=O)(=O)c3ccccc3)c(=O)c3cc(C)ccc32)cc1Cl` was run?
**A.** inactive: 92%

**Q.** With `CCC(=O)N1CCc2cc(Br)cc(S(=O)(=O)N3CCC(C(=O)Nc4cccc(C)c4)CC3)c21` as the compound, how does the survival read?
**A.** inactive: 94%

**Q.** How did the survival turn out when `CCC(Cn1nnc2ccccc2c1=O)NC(=O)Nc1cc(OC)cc(OC)c1` (stereo not drawn) was run?
**A.** inactive: 84%

**Q.** How did the survival turn out when `Cc1cc2c(cc3c(SCc4cccc(Cl)c4)nnc(C)n32)o1` was run?
**A.** inactive: 72%

**Q.** How did the survival turn out when `CCc1ccc(NC(=O)CSC2=Nc3ccccc3C3=NC(CC(=O)NCc4cccs4)C(=O)N23)cc1` (stereo not drawn) was run?
**A.** inactive: 73%

**Q.** `COc1cccc(N2CCN(C(=O)c3ccc4c(Cl)c5c(nc4c3)CCCC5)CC2)c1` was tested. Which survival did it give?
**A.** inactive: 91%

**Q.** `CCCSc1nnc(NC(=O)Cc2coc3cc(C)ccc23)s1` was tested. Which survival did it give?
**A.** inactive: 102%

**Q.** Which survival does the source give for `CC(=O)c1ccc(NC(=O)CSc2nc3c(=O)n(C)c(=O)n(C)c3n2C)cc1` here?
**A.** inactive: 56%

**Q.** How did the survival turn out when `O=c1[nH]c(C2CCN(S(=O)(=O)Cc3ccccc3)CC2)nc2c1nnn2Cc1cccc(Cl)c1` was run?
**A.** inactive: 107%

**Q.** For `O=c1c2cccnc2n(Cc2ccc(Cl)cc2)c(=O)n1Cc1ccc(F)cc1`, which survival is on record?
**A.** inactive: 94%

**Q.** For `CNC(=O)c1cccc(-n2c(C)nc3cccnc32)c1C`, which survival is on record?
**A.** inactive: 68%

**Q.** With `CCCC(=O)N1CCCC(c2nc(-c3ccc(C(C)C)cc3)no2)C1` (stereo not drawn) as the compound, how does the survival read?
**A.** inactive: 112%

**Q.** With `CC(=O)Nc1ccc(S(=O)(=O)N2CCN(c3ccc(C)c(C)c3)CC2)cc1` as the compound, how does the survival read?
**A.** inactive: 124%

**Q.** How did the survival turn out when `CC(C)NC(=O)c1ccc(Cl)cc1Cl` was run?
**A.** inactive: 102%

**Q.** `Cc1cc(N2CCN(C)CC2)nc2ccc(NC(=O)c3ccccc3F)cc12` was tested. Which survival did it give?
**A.** inactive: 119%

**Q.** With `Cc1cccc(NC(=O)Nc2ccc(C)c(C)c2)n1` as the compound, how does the survival read?
**A.** inactive: 80%

**Q.** `O=C(CSc1nnc2[nH]c(=O)cc(-c3ccccc3)n12)Nc1ccccc1C(F)(F)F` was tested. Which survival did it give?
**A.** inactive: 71%

**Q.** Which survival does the source give for `CCCN1CC=C2C(C#N)=C(N)C(C#N)(C#N)C(c3cccc(OC)c3)C2C1` (stereo not drawn) here?
**A.** inactive: 102%

**Q.** For `Cc1cc(OCC(=O)Nc2ccc(C(=O)OC3CCCCC3)cc2)ccc1Cl`, which survival is on record?
**A.** inactive: 67%
